Laboratory results taken from the supplement of paper PMC11741623.
The list shows a part of the results. Interaction screen of human proteins with wild-type SARS-CoV-2 proteins by split-DHFR complementation in yeast, 1 µg/mL methotrexate. Value = fitness of the pair (three or more lineages) minus that of the viral protein without a human partner, on a scale set by negative (0) and fused positive (1) controls, mean of up to three cultures; higher = more likely to interact. Active = false discovery rate below 0.05 (one-sided t-test) in at least one culture. Nearly all pairs are not hits, and differences among them are mostly noise (correlation between cultures about 0.3); most hits were seen in one culture only. Human sequences are the Swiss-Prot entries looked up by gene name; the clone may be another isoform. NSP2 values were corrected by the authors for a growth advantage. Listed are human proteins with a hit and a random twelfth of the others.

B1: CCDC50, Q8IVM0 (protein)
chain: MAEVSIDQSKLPGVKEVCRDFAVLEDHTLAHSLQEQEIEHHLASNVQRNRLVQHDLQVAKQLQEEDLKAQAQLQKRYKDLEQQDCEIAQEIQEKLAIEAERRRIQEKKDEDIARLLQEKELQEEKKRKKHFPEFPATRAYADSYYYEDGGMKPRVMKEAVSTPSRMAHRDQEWYDAEIARKLQEEELLATQVDMRAAQVAQDEEIARLLMAEEKKAYKKAKEREKSSLDKRKQDPEWKPKTAKAANSKSKESDEPHHSKNERPARPPPPIMTDGEDADYTHFTNQQSSTRHFSKSESSHKGFHYKH
B2: SOCS3, O14543 (protein)
chain: MVTHSKFPAAGMSRPLDTSLRLKTFSSKSEYQLVVNAVRKLQESGFYWSAVTGGEANLLLSAEPAGTFLIRDSSDQRHFFTLSVKTQSGTKNLRIQCEGGSFSLQSDPRSTQPVPRFDCVLKLVHHYMPPPGAPSFPSPPTEPSSEVPEQPSAQPLPGSPPRRAYYIYSGGEKIPLVLSRPLSSNVATLQHLCRKTVNGHLDSYEKVTQLPGPIREFLDQYDAPL
B3: ABHD14A, Q9BUJ0 (protein)
chain: MVGALCGCWFRLGGARPLIPLGPTVVQTSMSRSQVALLGLSLLLMLLLYVGLPGPPEQTSCLWGDPNVTVLAGLTPGNSPIFYREVLPLNQAHRVEVVLLHGKAFNSHTWEQLGTLQLLSQRGYRAVALDLPGFGNSAPSKEASTEAGRAALLERALRDLEVQNAVLVSPSLSGHYALPFLMRGHHQLHGFVPIAPTSTQNYTQEQFWAVKTPTLILYGELDHILARESLRQLRHLPNHSVVKLRNAGHACYLHKPQDFHLVLLAFLDHLP
B4: KIR3DL1, P43629 (protein)
chain: MSLMVVSMACVGLFLVQRAGPHMGGQDKPFLSAWPSAVVPRGGHVTLRCHYRHRFNNFMLYKEDRIHIPIFHGRIFQESFNMSPVTTAHAGNYTCRGSHPHSPTGWSAPSNPVVIMVTGNHRKPSLLAHPGPLVKSGERVILQCWSDIMFEHFFLHKEGISKDPSRLVGQIHDGVSKANFSIGPMMLALAGTYRCYGSVTHTPYQLSAPSDPLDIVVTGPYEKPSLSAQPGPKVQAGESVTLSCSSRSSYDMYHLSREGGAHERRLPAVRKVNRTFQADFPLGPATHGGTYRCFGSFRHSPYEWSDPSDPLLVSVTGNPSSSWPSPTEPSSKSGNPRHLHILIGTSVVIILFILLLFFLLHLWCSNKKNAAVMDQEPAGNRTANSEDSDEQDPEEVTYAQLDHCVFTQRKITRPSQRPKTPPTDTILYTELPNAKPRSKVVSCP
B5: ACAP3, Q96P50 (protein)
chain: MTVEFEECVKDSPRFRATIDEVETDVVEIEAKLDKLVKLCSGMVEAGKAYVSTSRLFVSGVRDLSQQCQGDTVISECLQRFADSLQEVVNYHMILFDQAQRSVRQQLQSFVKEDVRKFKETKKQFDKVREDLELSLVRNAQAPRHRPHEVEEATGALTLTRKCFRHLALDYVLQINVLQAKKKFEILDSMLSFMHAQSSFFQQGYSLLHQLDPYMKKLAAELDQLVIDSAVEKREMERKHAAIQQRTLLQDFSYDESKVEFDVDAPSGVVMEGYLFKRASNAFKTWNRRWFSIQNSQLVYQKKLKDALTVVVDDLRLCSVKPCEDIERRFCFEVLSPTKSCMLQADSEKLRQAWVQAVQASIASAYRESPDSCYSERLDRTASPSTSSIDSATDTRERGVKGESVLQRVQSVAGNSQCGDCGQPDPRWASINLGVLLCIECSGIHRSLGVHCSKVRSLTLDSWEPELLKLMCELGNSAVNQIYEAQCEGAGSRKPTASSSRQDKEAWIKDKYVEKKFLRKAPMAPALEAPRRWRVQKCLRPHSSPRAPTARRKVRLEPVLPCVAALSSVGTLDRKFRRDSLFCPDELDSLFSYFDAGAAGAGPRSLSSDSGLGGSSDGSSDVLAFGSGSVVDSVTEEEGAESEESSGEADGDTEAEAWGLADVRELHPGLLAHRAARARDLPALAAALAHGAEVNWADAEDEGKTPLVQAVLGGSLIVCEFLLQNGADVNQRDSRGRAPLHHATLLGRTGQVCLFLKRGADQHALDQEQRDPLAIAVQAANADIVTLLRLARMAEEMREAEAAPGPPGALAGSPTELQFRRCIQEFISLHLEES

target: SARS-CoV-2 M; assay: yeast fitness gain over the viral ORF with no human partner (scaled fitness); higher = more likely to interact
Method: (§1)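 Split mouse DHFR complementation in pooled diploid yeast: human ORFeome clones carry one fragment and viral ORFs the other; barcoded lineages compete in 1 µg/mL methotrexate and fitness is read by barcode sequencing in up to three cultures.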

Row | Binder | yeast fitness gain
1 | B1 | inactive: -0.0192
2 | B2 | inactive: -0.277
3 | B3 | inactive: 0.0302
4 | B4 | inactive: -0.0186
5 | B5 | inactive: -0.00177

target: SARS-CoV-2 NSP1; assay: as above
Method: as §1

Row | Binder | yeast fitness gain
6 | B1 | inactive: 0.118
7 | B2 | inactive: 0.0657
8 | B3 | inactive: 0.131
9 | B4 | inactive: -0.256
10 | B5 | inactive: -0.00423

target: SARS-CoV-2 NSP10; assay: as above
Method: as §1

Row | Binder | yeast fitness gain
11 | B1 | inactive: 0.0548
12 | B2 | inactive: -0.0224
13 | B3 | inactive: -0.0077
14 | B4 | inactive: -0.195

target: SARS-CoV-2 NSP12; assay: as above
Method: as §1

Row | Binder | yeast fitness gain
15 | B1 | inactive: -0.0147
16 | B2 | inactive: 0.113
17 | B3 | inactive: 0.0267
18 | B4 | inactive: -0.0806
19 | B5 | inactive: -0.039

target: SARS-CoV-2 NSP13; assay: as above
Method: as §1

Row | Binder | yeast fitness gain
20 | B1 | inactive: 0.022
21 | B2 | inactive: -0.0406
22 | B3 | inactive: -0.0294
23 | B4 | inactive: -0.00503
24 | B5 | inactive: 0.0174

target: SARS-CoV-2 NSP14; assay: as above
Method: as §1

Row | Binder | yeast fitness gain
25 | B1 | inactive: -0.00609
26 | B2 | inactive: 0.113
27 | B5 | inactive: -0.0731

target: SARS-CoV-2 NSP15; assay: as above
Method: as §1

Row | Binder | yeast fitness gain
28 | B1 | inactive: 0.0932
29 | B2 | inactive: -0.0363

target: SARS-CoV-2 NSP2; assay: as above
Method: as §1

Row | Binder | yeast fitness gain
30 | B1 | inactive: -0.0709
31 | B2 | inactive: -0.199
32 | B3 | inactive: -0.163
33 | B4 | inactive: 0.0276
34 | B5 | inactive: -0.269

target: SARS-CoV-2 NSP4; assay: as above
Method: as §1

Row | Binder | yeast fitness gain
35 | B1 | inactive: -0.693
36 | B2 | inactive: -0.0735
37 | B3 | inactive: -0.0447
38 | B4 | inactive: -0.416
39 | B5 | inactive: 0.00893

target: SARS-CoV-2 NSP5; assay: as above
Method: as §1

Row | Binder | yeast fitness gain
40 | B1 | inactive: 0.0543
41 | B2 | inactive: 0.0466
42 | B3 | inactive: -0.0304
43 | B4 | inactive: 0.0543

target: SARS-CoV-2 NSP6; assay: as above
Method: as §1

Row | Binder | yeast fitness gain
44 | B1 | inactive: 0.0165
45 | B2 | inactive: -0.0308
46 | B3 | inactive: 0.0237
47 | B4 | inactive: -0.0456
48 | B5 | inactive: -0.00552

target: SARS-CoV-2 NSP7; assay: as above
Method: as §1

Row | Binder | yeast fitness gain
49 | B1 | inactive: 0.0435
50 | B2 | inactive: 0.0799
51 | B3 | inactive: 0.073

target: SARS-CoV-2 NSP8; assay: as above
Method: as §1

Row | Binder | yeast fitness gain
52 | B1 | inactive: 0.0108
53 | B2 | inactive: 0.0752
54 | B3 | inactive: 0.00829
55 | B5 | inactive: 0.0351

target: SARS-CoV-2 ORF10; assay: as above
Method: as §1

Row | Binder | yeast fitness gain
56 | B1 | inactive: -0.00335
57 | B2 | inactive: 0.00269
58 | B3 | inactive: -0.115
59 | B5 | inactive: 0.0541

target: SARS-CoV-2 ORF3A; assay: as above
Method: as §1

Row | Binder | yeast fitness gain
60 | B1 | inactive: 0.0749
61 | B2 | inactive: -0.191
62 | B3 | inactive: 0.0241
63 | B5 | inactive: 0.0658

target: SARS-CoV-2 ORF3B; assay: as above
Method: as §1

Row | Binder | yeast fitness gain
64 | B1 | inactive: -0.0221
65 | B2 | inactive: -1.1e-05
66 | B3 | inactive: 0.0305
67 | B5 | inactive: 0.0862

target: SARS-CoV-2 ORF6; assay: as above
Method: as §1

Row | Binder | yeast fitness gain
68 | B1 | inactive: -0.00483
69 | B2 | inactive: 0.0121
70 | B3 | inactive: 0.0234
71 | B4 | inactive: 0.0451
72 | B5 | inactive: -0.0759

target: SARS-CoV-2 ORF7A; assay: as above
Method: as §1

Row | Binder | yeast fitness gain
73 | B1 | inactive: -0.0185
74 | B2 | inactive: 0.0038
75 | B3 | inactive: -0.0206
76 | B5 | inactive: -0.0813

target: SARS-CoV-2 ORF7B; assay: as above
Method: as §1

Row | Binder | yeast fitness gain
77 | B1 | inactive: 0.00914
78 | B2 | inactive: -0.0321
79 | B3 | inactive: -0.0951
80 | B4 | inactive: -0.0564
81 | B5 | inactive: -0.00329

target: SARS-CoV-2 ORF8; assay: as above
Method: as §1

Row | Binder | yeast fitness gain
82 | B1 | inactive: -0.0152
83 | B2 | inactive: 0.0433
84 | B3 | inactive: -0.0453
85 | B4 | inactive: 0.0385
86 | B5 | inactive: -0.027

target: SARS-CoV-2 ORF9B; assay: as above
Method: as §1

Row | Binder | yeast fitness gain
87 | B1 | inactive: -0.0514
88 | B2 | inactive: -0.0353
89 | B3 | inactive: -0.0127
90 | B4 | inactive: -0.0644
91 | B5 | inactive: 0.13

target: SARS-CoV-2 S; assay: as above
Method: as §1

Row | Binder | yeast fitness gain
92 | B1 | inactive: 0.0628
93 | B2 | inactive: 0.0164
94 | B3 | inactive: -0.048
95 | B5 | inactive: 0.0375

target: SARS-CoV-2 N; assay: as above
Method: as §1

Row | Binder | yeast fitness gain
96 | B2 | inactive: -0.118

target: SARS-CoV-2 NSP16; assay: as above
Method: as §1

Row | Binder | yeast fitness gain
97 | B2 | inactive: 0.0927

target: SARS-CoV-2 NSP9; assay: as above
Method: as §1

Row | Binder | yeast fitness gain
98 | B2 | inactive: -0.104

target: SARS-CoV-2 ORF9Bwu (the 73-codon ORF); assay: as above
Method: as §1

Row | Binder | yeast fitness gain
99 | B3 | inactive: -0.0748
100 | B5 | inactive: -0.0221
